In PubChem BioAssay AID1768 (National Center for Advancing Translational Sciences (NCATS), 2009):
Several values for one entry are separate records, joined by “and”; a condition that tells them apart may be missing. Equal values may be shown once. In all, about 270,000 compounds went through this assay and about 620 (0.23%) were called active. Inconclusive means that the source gave no clear call. Such entries were picked first, then a sample of the others. Calls come from the whole dose curve; as a rule, active = well fitted inhibition curve with a large enough effect in the polarisation, with a control signal flat (not every such curve was filed as active); inconclusive = small, poorly fitted or top-dose-only effect, or effect the other way, or a change in a side signal; inactive = no such curve, though single readings can be large or run the other way; the % refers to the polarisation. A potency beside an inconclusive call is a rough fit, not a confirmed value. “Side channel” marks fits to a control or component signal instead of the main read-out.
Potency is the fitted concentration of half-maximal effect; tags give direction and shape of the fitted curve or compound fluorescence and quenching.
Throughout, for FP activity change, negative = inhibition: % of control where 0% means no effect.

Each compound was assayed against Menin (Homo sapiens) (UniProt O00255) (assay: qHTS Assay for Inhibitors Targeting the Menin-MLL Interaction in MLL Related Leukemias: Competition With Texas Red Labeled MLL-derived Mutant Peptide). Settings: fluorescence polarization; FP activity change, negative = inhibition: at 61.6 µM (top of the series).
Sequence of UniProt O00255 (O00255 whole entry, looked up): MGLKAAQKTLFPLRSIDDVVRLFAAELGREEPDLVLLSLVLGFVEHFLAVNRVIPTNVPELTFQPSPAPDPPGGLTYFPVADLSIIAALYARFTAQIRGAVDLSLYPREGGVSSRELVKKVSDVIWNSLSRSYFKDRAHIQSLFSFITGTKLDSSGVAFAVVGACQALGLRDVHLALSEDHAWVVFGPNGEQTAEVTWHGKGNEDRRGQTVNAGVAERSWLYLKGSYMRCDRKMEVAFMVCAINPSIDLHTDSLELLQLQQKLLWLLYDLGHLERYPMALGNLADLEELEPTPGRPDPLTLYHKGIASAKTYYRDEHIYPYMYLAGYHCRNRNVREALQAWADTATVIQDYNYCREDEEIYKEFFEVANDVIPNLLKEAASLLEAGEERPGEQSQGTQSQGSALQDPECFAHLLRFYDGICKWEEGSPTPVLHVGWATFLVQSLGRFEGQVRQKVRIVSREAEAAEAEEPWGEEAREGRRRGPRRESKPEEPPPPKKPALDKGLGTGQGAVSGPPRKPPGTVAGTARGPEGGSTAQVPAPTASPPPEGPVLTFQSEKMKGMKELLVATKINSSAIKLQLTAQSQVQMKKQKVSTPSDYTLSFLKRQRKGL
With `O=c1cc(NS(=O)(=O)c2ccccc2)nc(SCc2c(Cl)cccc2Cl)[nH]1` the Potency was inconclusive: 31.6 µM [inhibitor, single point].
For `O=C(CCc1ccc(O)c(O)c1)N/N=C/c1cc2c(cc1[N+](=O)[O-])OCO2`, the Potency was inconclusive: 12.6 µM [quencher, side channel, partial curve].
`COc1cc(/C=C2/SC(=S)N(Cc3ccccc3)C2=O)cc(OC)c1O` was tested, and the Potency was inconclusive: 3.55 µM [fluorescent, side channel, full curve].
With `CSc1ccc(Cl)c(C(=O)Nc2ccc(Cl)cn2)c1` the Potency was inconclusive: 39.8 µM [inhibitor, single point].
In the case of `CSc1nc(C)c2c(n1)N(c1ccc(C(C)C)cc1)CC2`, the Potency is reported as inconclusive: 3.16 µM [inhibitor, single point].
In the case of `Cn1c(SCC(=O)Nc2ccc3cn[nH]c3c2)nnc1-c1cccs1`, the “FP activity change, negative = inhibition” value is reported as inactive: 8.65%.
`O=C(CSc1nnc(-c2ccc(Cl)cc2)o1)N1CCN(c2ccccc2)CC1` was tested, and the Potency was inconclusive: 31.6 µM [quencher, side channel, single point].
For `Cc1cc2nc3s/c(=C/c4ccc(-c5ccccc5C(=O)O)o4)c(=O)n3c2cc1C`, the Potency was inconclusive: 15.8 µM [quencher, side channel, partial curve].
With `CC(C)Oc1ccc2c(=O)c(-c3ccccc3)coc2c1` the Potency was inconclusive: 39.8 µM [fluorescent, side channel, single point] and inconclusive: 31.6 µM [fluorescent, side channel, single point] and inconclusive: 22.4 µM [fluorescent, side channel, partial curve].
For `Cc1ccc(C(=O)Nc2ccccc2-c2ccccc2)cc1S(=O)(=O)Nc1cccc(C)c1C`, the Potency was inconclusive: 39.8 µM [inhibitor, single point].
In the case of `O=C(NN1C(=O)/C(=C/c2ccc(O)cc2)SC1=S)c1cccc(O)c1`, the Potency is reported as inconclusive: 28.2 µM [fluorescent, partial curve].
`CCn1c2ccc(C)cc2c2nc3cc(C(=O)O)ccc3nc21` was tested, and the Potency was inconclusive: 35.5 µM [quencher, side channel, single point].
`COc1ccccc1/C=N/n1cnnc1` was tested, and the Potency was inconclusive: 0.891 µM [inhibitor, full curve].
In the case of `O=C(N/N=C/c1ccc(O)cc1O)c1ccncc1`, the Potency is reported as inconclusive: 31.6 µM [quencher, side channel, partial curve].
`COc1cc(/C=N/Nc2ncnc3sc4c(c23)CCC4)ccc1O` was tested, and the Potency was inconclusive: 14.1 µM [quencher, side channel, partial curve].
For `Cc1ccc(-c2[nH]c(-c3ccc(Cl)cc3)nc2SCC(=O)NCC2CCCO2)cc1` (stereo not given), the Potency was inconclusive: 10 µM [quencher, side channel, partial curve].
In the case of `Cc1ccc2nc(NC(=O)CN(C)S(=O)(=O)c3ccc(Br)s3)sc2c1`, the Potency is reported as inconclusive: 14.1 µM [quencher, side channel, partial curve].
`Cc1cccc(NC(=O)C2(c3ccccc3)CC2(Cl)Cl)c1` (stereo not given) was tested, and the Potency was inconclusive: 8.91 µM [quencher, side channel, partial curve].
`O=C(COc1cccc(NC(=O)c2cccc([N+](=O)[O-])c2)c1)c1ccc(F)cc1` was tested, and the Potency was inconclusive: 20 µM [quencher, side channel, partial curve].
In the case of `Cc1ccc(C2(c3noc(CN(C)CC4COCCO4)n3)CCCC2)cc1` (stereo not given), the Potency is reported as inconclusive: 12.6 µM [fluorescent, side channel, partial curve].
`COc1ccc(NS(=O)(=O)c2ccc3nc(COc4ccc(C#N)cc4)[nH]c3c2)cc1` was tested, and the Potency was inconclusive: 20 µM [quencher, side channel, partial curve].
With `O=Cc1cccc(OC(=O)/C=C/c2ccco2)c1` the Potency was inconclusive: 39.8 µM [quencher, side channel, single point].
For `COc1ccc(-c2c(O)c3cc(O)cc(O)c3oc2=O)cc1`, the Potency was inconclusive: 11.2 µM [quencher, side channel, partial curve].
In the case of `CC1CCC(NC(=O)C(NC(=O)c2ccccc2)C(C)C)CC1` (stereo not given), the Potency is reported as inconclusive: 3.55 µM [inhibitor, single point].
In the case of `Cc1ccc(OCC(=O)c2c[nH]c3ccccc23)c([N+](=O)[O-])n1`, the Potency is reported as inconclusive: 14.1 µM [quencher, side channel, partial curve].
`S=C(Nc1ccccc1)c1nc2ccccc2s1` was tested, and the Potency was inconclusive: 39.8 µM [inhibitor, single point].
In the case of `CC(C)N1CCN(c2ccc(C(=O)c3c(-c4ccc(O)cc4)sc4cc(O)ccc34)cc2)CC1`, the “FP activity change, negative = inhibition” value is reported as inactive: 63.4%.
For `O=C(NCC1CCCO1)c1ccccc1` (stereo not given), the “FP activity change, negative = inhibition” value was inactive: 0.135%.
For `CC(Oc1ccccc1)C(=O)Nc1ccc(NC(=O)c2ccccc2)cc1` (stereo not given), the Potency was inconclusive: 39.8 µM [fluorescent, side channel, single point].
In the case of `N#Cc1ccccc1-c1ccc2ncnc(NCc3ccccc3)c2c1`, the Potency is reported as inconclusive: 39.8 µM [fluorescent, single point].
In the case of `CN(C)c1ncc2nc(-c3ccc(Cl)cc3)c(=O)n(CCC#N)c2n1`, the “FP activity change, negative = inhibition” value is reported as inactive: 1.29%.
For `CCCCCCCCn1c2c(c(=N)c3ccccc31)CCC2`, the “FP activity change, negative = inhibition” value was inactive: 6.18%.
In the case of `CC12CC(NC(=O)N1c1ccc(C(=O)N3CCN(c4ccc(F)cc4)CC3)cc1)c1ccccc1O2` (stereo not given), the Potency is reported as inconclusive: 1.78 µM [fluorescent, side channel, full curve, poor fit].
With `CC(C)c1cc(C(=O)NNC(=S)NCc2ccco2)c(O)c(C(C)C)c1` the Potency was inconclusive: 20 µM [quencher, side channel, partial curve].
For `CCOC(=O)C1=C(N2CCCCC2)c2cc3c(n2C1=O)CCCC3`, the Potency was inconclusive: 2.51 µM [fluorescent, side channel, full curve, poor fit].
With `COc1ccc(-c2nn(-c3ccccc3)cc2/C=C2/SC(=S)N(Cc3ccco3)C2=O)c(C)c1` the Potency was inconclusive: 1.58 µM [inhibitor, full curve].
With `O=C(COc1ccc2ccccc2c1)NNC(=O)Cc1cccc2ccccc12` the Potency was inconclusive: 39.8 µM [inhibitor, single point].
For `CC(C)C(=O)Nc1ccc(NC(=O)c2ccc(COc3ccccc3)cc2)cc1`, the Potency was inconclusive: 7.08 µM [inhibitor, full curve].
`Cc1nc2sc3c(c2c(=O)n1/N=C/c1cccnc1)CCCC3` was tested, and the Potency was inconclusive: 31.6 µM [fluorescent, side channel, single point].
For `O=C(CN1CCN(S(=O)(=O)c2ccc(F)cc2)CC1)Nc1ccc2c(c1)OCCO2`, the Potency was inconclusive: 3.16 µM [inhibitor, single point].
For `CCCn1c(-c2ccc(F)cc2)nc2c(NCCCN3CCOCC3)nc(C)nc21`, the Potency was inconclusive: 15.8 µM [inhibitor, partial curve].
In the case of `Cc1c(CN(C)C(=O)c2sc3cc(Cl)ccc3c2Cl)cnn1C`, the Potency is reported as inconclusive: 12.6 µM [inhibitor, partial curve].
With `COc1ccc(N(CC(O)CN2C(=O)NC(C)(C)C2=O)S(=O)(=O)c2ccc(C)cc2)cc1` (stereo not given) the Potency was inconclusive: 35.5 µM [fluorescent, side channel, single point].
With `CC(C)CCN(CC(=O)NCc1ccc(F)cc1)S(=O)(=O)c1ccccc1F` the Potency was inconclusive: 15.8 µM [fluorescent, side channel, partial curve].
For `CCOc1cccc2cc(C(=O)NCc3ccc(F)cc3)c(=N)oc12`, the Potency was inconclusive: 22.4 µM [fluorescent, side channel, partial curve].
`CCc1ccc(C(=O)COC(=O)c2cccc(N3C(=O)c4c(C)nc5ccccc5c4C3=O)c2)cc1` was tested, and the Potency was inconclusive: 22.4 µM [quencher, side channel, single point].
With `CC(C)(C)C1(O)CC(C(F)(F)F)=NN1C(=O)CCc1ccccc1` (stereo not given) the Potency was inconclusive: 11.2 µM [fluorescent, side channel, partial curve].
For `CC(=O)NCCC(=O)Nc1nc(-c2c[nH]c3ccccc23)cs1`, the Potency was inconclusive: 17.8 µM [quencher, side channel, single point].
With `C/C=C/C(O)c1ccc2ccccc2c1` (stereo not given) the Potency was inconclusive: 12.6 µM [inhibitor, partial curve].
With `COc1ccccc1N1CCN(CC(=O)NCC2CCCO2)CC1` (stereo not given) the “FP activity change, negative = inhibition” value was inactive: 12.4%.
In the case of `O=C(Cc1c[nH]c2ccccc12)Nc1nc2ccccc2[nH]1`, the Potency is reported as inconclusive: 20 µM [quencher, side channel, partial curve].
For `CC(=O)N1CCN(S(=O)(=O)c2cccc(C(=O)Nc3ccc(F)c(F)c3)c2)CC1`, the Potency was inconclusive: 0.316 µM [quencher, side channel, full curve, poor fit].
`CO[C@H]1C=CO[C@@]2(C)Oc3c(C)c(O)c4c(O)c(c(C=NN5CCN(C)CC5)c(O)c4c3C2=O)NC(=O)C(C)=CC=C[C@H](C)[C@H](O)[C@@H](C)[C@@H](O)[C@@H](C)[C@H](OC(C)=O)[C@@H]1C` was tested, and the Potency was inconclusive: 12.6 µM [quencher, side channel, partial curve].
In the case of `O=C(O)c1[nH]c2ccccc2c1C(c1cccc(O)c1)c1c(C(=O)O)[nH]c2ccccc12`, the Potency is reported as inconclusive: 22.4 µM [quencher, side channel, single point].
With `CCc1nc(Nc2ccc3c(c2)OCCO3)c2oc3ccccc3c2n1` the Potency was inconclusive: 12.6 µM [quencher, side channel, partial curve].
